# Test results reported in publication PMC4336329 (PLoS ONE, 2015).
# In all, about 310,000 compounds went through this assay and about 14,000 (4.5%) showed an effect of 50% or more. The effect is printed as a negative number. The list shows a part of the results.
# Target: human ether-à-go-go-related gene (hERG) potassium channel (human, UniProt Q12809)
# Assay: primary screen, population patch clamp on CHO cells stably expressing hERG
# 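Note: peak tail current of the secondary pulse compared with the same well before compound.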
# Chain of human ether-à-go-go-related gene (hERG) potassium channel (Q12809 whole entry, looked up): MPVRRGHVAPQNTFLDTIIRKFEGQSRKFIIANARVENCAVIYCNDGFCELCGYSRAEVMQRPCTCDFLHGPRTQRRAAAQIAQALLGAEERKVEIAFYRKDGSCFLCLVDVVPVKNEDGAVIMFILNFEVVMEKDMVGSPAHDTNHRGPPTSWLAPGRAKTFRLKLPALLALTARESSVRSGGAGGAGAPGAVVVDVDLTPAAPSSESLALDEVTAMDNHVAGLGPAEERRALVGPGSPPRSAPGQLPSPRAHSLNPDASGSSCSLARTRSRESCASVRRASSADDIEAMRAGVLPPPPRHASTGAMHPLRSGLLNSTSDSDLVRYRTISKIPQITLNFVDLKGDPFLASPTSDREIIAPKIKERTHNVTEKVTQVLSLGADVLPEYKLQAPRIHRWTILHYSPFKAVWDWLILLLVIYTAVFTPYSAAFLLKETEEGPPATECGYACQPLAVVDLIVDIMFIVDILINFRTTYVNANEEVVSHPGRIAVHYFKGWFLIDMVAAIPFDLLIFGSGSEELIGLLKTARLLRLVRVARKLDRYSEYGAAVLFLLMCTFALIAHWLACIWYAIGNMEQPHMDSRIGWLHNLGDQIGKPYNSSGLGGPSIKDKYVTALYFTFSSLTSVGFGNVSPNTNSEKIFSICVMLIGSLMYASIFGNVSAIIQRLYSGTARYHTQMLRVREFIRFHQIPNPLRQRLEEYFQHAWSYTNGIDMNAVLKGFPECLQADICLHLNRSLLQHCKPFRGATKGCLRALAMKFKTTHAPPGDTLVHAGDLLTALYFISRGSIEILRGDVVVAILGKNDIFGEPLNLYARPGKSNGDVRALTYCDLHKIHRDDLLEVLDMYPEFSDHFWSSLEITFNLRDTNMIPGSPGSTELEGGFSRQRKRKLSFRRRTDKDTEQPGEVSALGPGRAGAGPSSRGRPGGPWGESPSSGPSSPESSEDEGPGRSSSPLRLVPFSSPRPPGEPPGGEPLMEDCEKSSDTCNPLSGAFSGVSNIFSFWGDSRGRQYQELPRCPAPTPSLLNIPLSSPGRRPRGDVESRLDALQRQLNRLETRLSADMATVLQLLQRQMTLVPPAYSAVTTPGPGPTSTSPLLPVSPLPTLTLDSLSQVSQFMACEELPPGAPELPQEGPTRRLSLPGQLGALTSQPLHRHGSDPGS
row,SMILES,"hERG current change (%, negative = inhibition) at 10uM [%]"
1,Cc1ccc(-n2c(SCC(=O)N3c4ccccc4Sc4ccccc43)nnc2-c2ccncc2)cc1,-3.06
2,COc1ccc(S(=O)(=O)Nc2ccc(Oc3ncccn3)c(Cl)c2)cc1,-13.3
3,CC1(C)NC(=O)N(CC(=O)N2CCC(Cc3ccccc3)CC2)C1=O,-19
4,CCCN(CCC)Cc1c(C(=O)N/N=C/c2ccco2)nnn1-c1nonc1N,-5.99
5,COc1ccc(C)cc1NC(=O)COC(=O)C1CCN(C(=O)c2ccc(Cl)cc2)CC1,-79.1
6,COc1cc(NC(=O)Nc2cccc(C(C)=O)c2)cc(OC)c1OC,-14.4
7,CCOc1ccc(-c2nnc(NC(=O)C3CCCC3)o2)cc1,12.3
8,O=C(COc1ccc(Cl)cc1)NC1=NN(c2ccccc2)C(=O)C1,-4.52
9,CC(C)C(=O)Nc1cccc(NC(=O)CCN2C(=O)c3ccccc3S2(=O)=O)c1,-1.86
10,CC(=O)c1ccc(S(=O)(=O)N(C)CC(=O)Nc2ccc(C)cc2)cc1,-0.949
11,O=C(NCc1ccco1)C(c1ccc(F)cc1)N(CC1CCCO1)C(=O)Cn1nnc2ccccc21 (stereo not drawn),-0.232
12,C=C(C)Cn1c(C)cc(C)c(S(=O)(=O)c2cccc(C)c2)c1=O,-3.17
13,O=C(Cc1ccc(S(=O)(=O)N2CCOCC2)s1)NCCc1ccc(F)cc1,-12.2
14,O=C(O)CSc1nnnn1-c1ccc2c(c1)OCCO2,-12.5
15,CCOC(=O)c1[nH]c2ccccc2c1CCCN1C(=O)c2ccccc2C1=O,-11.9
16,Cc1ccccc1C(=O)N1CCC(C(=O)Nc2nc3ccc(F)cc3s2)CC1,-42.8
17,Nc1cc(Cl)ccc1C(=O)OCC(=O)NC1CCCCC1,35.7
18,N[C@@H](Cc1c[nH]c2ccc(O)cc12)C(=O)O,9.57
19,CC(C)N1C(=O)C(=O)N(CC(=O)N(C)c2ccccc2)C1=O,2.89
20,Cc1c(C(=O)NN)sc(-c2ccccc2)c1C#N,5.38
21,CCOC(=O)c1c(C)n(C)c2ccc(OCC(O)CN3CCC(C)CC3)cc12.Cl (stereo not drawn),-15.8
22,CC(C)C(=O)Nc1cccnc1,17.3
23,O=C(Cn1cnc([N+](=O)[O-])n1)N/N=C/c1cccc(Cl)c1,4.41

row,SMILES,"hERG current change (%, negative = inhibition) at 10uM [%]"
1,O=C(Cc1c(C(=O)O)[nH]c2ccccc12)NCCN1CCN(c2cccc(Cl)c2)CC1,4.19
2,Cc1nnc(NC(=O)CSc2nnc(Cc3cccn3C)n2C)s1,3.54
3,CCOC(=O)/C=C(\C)Sc1cc(=O)oc2ccccc12,-40.4
4,COc1ccccc1CNC(=O)C(C)NS(=O)(=O)c1ccc(C)cc1 (stereo not drawn),10.8
5,O=C(c1ccncc1)N1CCN(c2cccc(C(F)(F)F)c2)CC1,-20
6,Cc1ccccc1C(=O)NC1CCN(Cc2nnnn2Cc2ccccc2)CC1,-47.8
7,Cc1ccc(Nc2nc(C)cc(C)c2C(N)=O)c(C)c1,17.1
8,Cc1ccc(/C=N/N(C)C2=NS(=O)(=O)c3ccccc32)o1,20.7
9,O=c1cc(CN2CC(O)Cc3ccc4ccccc4c32)nc2sccn12 (stereo not drawn),-15.3
10,Cc1c(C(=O)NC2CC2)oc2ccccc12,2.65
11,CN(Cc1ccccc1)C1CCN(Cc2ccccc2[N+](=O)[O-])CC1.O=C(O)C(=O)O,-59.6
12,CCCNC(=O)c1ccc2c(c1)CCN2S(C)(=O)=O,12.8
13,COc1ccc(C2CC(=O)C=C(NCCC(C)C)C2)cc1 (stereo not drawn),-73.2
14,O=C(NCCN1CCOC1=O)C1CCC(=O)N(CCc2ccc(Cl)cc2)C1 (stereo not drawn),-4.72
15,Cc1cc(O)c(/C=N/OCc2ccc(Cl)cc2Cl)c(=O)o1,23.5
16,CCOC(=O)c1sc(C)c(C(=O)NC2CCCCC2)c1N,-4.79
17,Brc1ccc(-c2csc(N3CCc4ccccc4C3)n2)cc1,13.4
18,CC(C)(C)N(Cc1ccccc1)C(=O)CSc1nnc(CNc2ccc(F)cc2)o1,1.12
19,O=C(CNC(=O)c1ccc(Br)o1)NC1CCCCCC1,-6.85
20,CCn1c(=O)n(CC(=O)N2CCN(c3ccccc3F)CC2)c(=O)c2ccccc21,-14.4
21,CCc1cc2c(=O)[nH]c(-c3ccncc3)nc2s1,7.03
22,COc1ccc2nc(Nc3nc(-c4cc5ccccc5oc4=O)cs3)sc2c1,9.3
23,CN(C)c1ccc(-c2n[nH]c(=S)n2-c2ccccc2)cc1,17.5

row,SMILES,"hERG current change (%, negative = inhibition) at 10uM [%]"
1,CCOc1c(OC(C)=O)ccc(/C=C/c2ccc3cccc(OC)c3n2)c1[N+](=O)[O-],2.88
2,COC(=O)C1C(=O)C2=C(CC1C)NC(=O)CC2c1ccc(O)c(OC)c1 (stereo not drawn),9.72
3,Cc1ccc(O)c(/C=N/NC(=O)Cc2ccc(Cl)cc2)c1,10.5
4,COC(=O)c1ccc(CSc2nnc(CNC(=O)c3cccs3)o2)o1,7.99
5,CCCCCCCCCc1nc(N)n[nH]1,-1.04
6,Cc1onc(-c2ccccc2Cl)c1C(=O)OCC(=O)N1CCN(c2ccccc2)CC1,-16.1
7,CN(C)S(=O)(=O)c1ccc(N/C=C(\[N+](=O)[O-])S(=O)(=O)c2ccccc2)cc1,15.2
8,COc1ccc(Cc2nnc(NCCO)[nH]c2=O)cc1OC,18.1
9,Cn1c(C(=O)N2CCCC(C(=O)N3CCN(C(=O)c4ccco4)CC3)C2)cc2sccc21 (stereo not drawn),-30.1
10,COc1cc(-c2nnc3sc(Cc4ccccc4)nn23)cc(OC)c1OC,-4.77
11,CCc1nc2c(nnn2Cc2ccc(F)cc2)c(=O)[nH]1,-3.71
12,CCOc1ccc(-c2cnc3ccccc3n2)cc1,14.3
13,COC(=O)c1c(NC(=O)COC(=O)CCc2ccc(S(=O)(=O)N3CCOCC3)cc2)sc2c1CCC2,1.26
14,CCOC(=O)C1CCN(C(=O)COC(=O)CNC(=O)c2sc3ccccc3c2Cl)CC1,-21.6
15,CCC1CCCCN1CCCNC(=O)Cn1c2ccccc2c2nc(=O)cc(C)n21 (stereo not drawn),10.5
16,COc1ccccc1C1CCN(Cc2ccccc2)CC1,-34.5
17,CC(=O)c1cccc(OCC(O)CN2CC=C(c3ccccc3)CC2)c1.O=C(O)C(=O)O (stereo not drawn),-68.9
18,COCCCn1c(=O)/c(=C\c2ccccc2OC(F)F)s/c1=C(/C#N)C(=O)N1CCOCC1,-17.1
19,COc1cc2c(cc1NC(=O)c1cccc(F)c1)CCCC2,4.09
20,COc1ccc(-c2c(C)[nH]n3c(=O)c(Cc4ccccc4)c(C)nc23)cc1OC,0.0435
21,O=C(Nc1ccccc1)/C(=C/c1cccnc1)NC(=O)c1ccccc1,2.08
22,Cc1cc2nsnc2c(S(=O)(=O)NCC(=O)O)c1C,-4.2
23,COc1ccc2cc(C#N)c(Cl)nc2c1,20.2

row,SMILES,"hERG current change (%, negative = inhibition) at 10uM [%]"
1,O=C(Nc1nnc(Cc2ccc(Cl)cc2)s1)c1cccs1,-4.72
2,O=C(Nc1ccc(Cl)cc1)Nn1cnc2ccccc2c1=O,7.47
3,C/C(CC(=O)Nc1cccc(C(F)(F)F)c1)=N\NC(=O)c1ccncc1,14.3
4,N#Cc1nc(N2CCOCC2)nc(N2CCOCC2)n1,-38.6
5,COc1cc(/C=N/NC(=O)Cc2ccccc2)cc(OC)c1OC,8.74
6,O=C1OCCN1C(=O)[C@H]1[C@H](c2ccc(F)cc2)C(c2ccc(F)cc2)=NN1c1ccc(Br)cc1,13
7,CC(=O)N1CCN(CC(=O)Nc2ccccc2Sc2ccccc2)CC1,-59.5
8,Cc1ccccc1CN(c1ccc(C(=O)N2CCN(C)CC2)cc1)S(C)(=O)=O,18.9
9,COc1ccc(C(CC(=O)O)NC(=O)COc2ccccc2)cc1 (stereo not drawn),7.42
10,Cc1ccc(C(=O)Nc2cccc(C(=O)NC3CCCC3)c2)cc1,10.6
11,Cc1cccc(CN2CCN(Cc3ccc(Cl)cc3)CC2)c1.O=C(O)C(=O)O,-40
12,CCN1CCN(C(=O)C2CCCN(S(=O)(=O)c3cccc4nsnc34)C2)CC1 (stereo not drawn),-10.1
13,CCOC(=O)C1=CN(C)C=C(C(=O)OCC)C1c1ccsc1,-28.5
14,C=CCNc1nc(S(=O)Cc2ccc(C)cc2)nc2c1CCCC2 (stereo not drawn),-17.1
15,CC(C)CSc1nnc(N)s1,11.5
16,Nc1nnnn1/N=C/C(Br)=C/c1ccccc1,-13.8
17,NC(=O)c1cccnc1Nc1cccc(F)c1,-4.36
18,CC1Sc2ccc(S(=O)(=O)CCC(=O)N3CCN(c4ccccc4)CC3)cc2NC1=O (stereo not drawn),10.9
19,COCCNC(=O)CCCn1c(=O)c2cc(OC)c(OC)cc2n(CC(=O)c2cccc(OC)c2)c1=O,4.37
20,O=C(CSc1cccc[n+]1[O-])CSc1cccc[n+]1[O-],7.05
21,Cc1cccc2c3nc4ccccc4nc3n(C)c12,15
